PubChem BioAssay AID1454 (National Center for Advancing Translational Sciences (NCATS), 2008)
Several values for one entry are separate records, joined by “and”; a condition that tells them apart may be missing. Equal values may be shown once. Out of some 130,000 compounds screened, about 550 (0.42%) were called active. The shares of active, inactive and inconclusive entries below differ from those in the screen. Calls come from the whole dose curve; as a rule, active = well fitted inhibition curve with a large enough effect; inconclusive = small, poorly fitted or top-dose-only effect, or effect the other way; inactive = flat fitted curve, though single readings scatter. Potencies of inconclusive entries are doubtful fits and often do not repeat.

assay: qHTS Assay for Inhibitors of the ERK Signaling Pathway using a Homogeneous Screening Assay; Stimulation with EGF; settings: HEK293-V1b, EGF-stimulated phospho-ERK AlphaScreen; activity change, negative = inhibition: at the top concentration; note: nearly all actives have a fitted effect of over 55% in size;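 for activity change, negative = inhibition: plate controls were stimulated vehicle wells for no effect and unstimulated vehicle basal for full effect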
Summary of the method: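 V1b-HEK293, 1% FBS o/n; cpd 30 min 37C; EGF 25 nM final, 5 min; lyse 10 min; AlphaScreen beads 5 h RT. Normalized DMSO basal vs EGF max; Hill AC50.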
Potency is the fitted concentration of half-maximal effect; tags give direction and shape of the fitted curve.

SMILES | Potency | activity change, negative = inhibition
C=CC[n+]1c(-c2ccc(C)cc2)csc1Nc1ccc(NC(C)=O)cc1 | inconclusive: 39.8 µM [inhibitor, single point] | –
O=C(O)c1cc(-n2nnnc2SCc2ccccc2F)ccc1Cl | inconclusive: 35.5 µM [inhibitor, single point] | –
COc1ccc(-c2cn[nH]c2-c2ccc(OCc3ccc([N+](=O)[O-])cc3)cc2O)cc1 | inconclusive: 39.8 µM [inhibitor, single point] | –
CN(c1ccc(OCC(=O)OCC(=O)Nc2ccccc2)cc1)S(=O)(=O)c1cccs1 | – | inactive: 9.67%
O=S(=O)(c1cccc(NC(=S)N2CCN(c3cccc(Cl)c3)CC2)c1)C(F)F | active: 25.1 µM | –
COc1cccc(C2SCC(=O)N2c2ccc(C)cc2)c1OC (centres undefined) | inconclusive: 3.16 µM [inhibitor, single point] | –
CCOC(=O)/C(=N\Nc1ccccc1)P(=O)(c1ccccc1)c1ccccc1 | – | inactive: -1.66% [at 57.5 µM]
O=C(O)c1cccc(CN2C(=O)S/C(=C/c3cccc([N+](=O)[O-])c3)C2=O)c1 | inconclusive: 39.8 µM [inhibitor, single point] | –
Cc1cccn2c(=O)c3cc(C(N)=S)c(=N)n(CCCN4CCOCC4)c3nc12 | inconclusive: 25.1 µM [inhibitor, single point] | –
CCN(CC)c1ccc(/C=N/N2CCN(Cc3ccccc3)CC2)c(O)c1 | inconclusive: 28.2 µM [inhibitor, single point] | –
CCOC(=O)c1c(/N=C/c2cc(OC)cc([N+](=O)[O-])c2O)sc(C)c1C | inconclusive: 31.6 µM [inhibitor, single point] | –
CCOC(=O)c1sc(NC(=O)CSc2nc3c(c(=O)n2-c2ccc(C)cc2)SCC3)c(C(=O)OCC)c1C | inconclusive: 10 µM [inhibitor, partial curve] | –
CCOc1cc(CNc2ccc(N3CCCCC3)cc2)cc(Br)c1OCC(=O)NC(C)(C)C | – | inactive: -7.71%
C#CCCCC(=O)Nc1ccccc1 | – | inactive: 1.12%
Cc1cc(C(=O)OCC(=O)N2c3ccccc3NC(=O)C2(C)C)c(C)n1-c1ccccc1 | inconclusive: 20 µM [inhibitor, single point] | –
CCc1cccc2c(C(=O)COC(=O)c3ccc([N+](=O)[O-])s3)c[nH]c12 | inconclusive: 8.91 µM [inhibitor, partial curve] | –
CCC1=C2CC[C@H]3C(=O)NC(=O)[C@H]3[C@H]2[C@@]2(C)C(=NCCOC)OC(=O)N2C1=O | – | inactive: 4.16%
Cc1cccc(CNc2ncnc3ccc(-c4cccnc4)cc23)c1 | active: 8.91 µM | –
Cc1cc2nc(/C(C#N)=C/c3ccncc3)[nH]c2cc1C | inconclusive: 35.5 µM [inhibitor, partial curve] | –
COC(=O)CC1c2ccccc2C=C(C2CC2)N1C(=O)OC (centres undefined) | – | inactive: -9.58%
Cc1ccc(/C=C2\SC(=S)N(CC3CCCO3)C2=O)o1 (centres undefined) | inconclusive: 35.5 µM [inhibitor, single point] | –
COc1ccc(-c2nc3ccc([N+](=O)[O-])cc3[nH]2)cc1 | inconclusive: 35.5 µM [inhibitor, single point] | –

SMILES | Potency | activity change, negative = inhibition
O=C(/C=C/c1ccc(Cl)cc1Cl)N(Cc1ccccc1)C1CCS(=O)(=O)C1 (centres undefined) | inconclusive: 5.62 µM [inhibitor, single point] | –
Cc1ccn(CCC(=O)N2CCCC(CCC(=O)NCc3ccc(F)c(F)c3)C2)n1 (centres undefined) | inconclusive: 39.8 µM [inhibitor, single point] | –
COc1ccc(NC(=O)N2CC3(CCNCC3)C2)cc1 | – | inactive: -9.34%
CCn1cc(CNCc2cn(-c3ccccc3C)nc2-c2ccc(OC)c(F)c2)cn1 | inconclusive: 8.91 µM [inhibitor, single point] | –
O=C(/C=C/Nc1ccc(Br)cc1F)c1ccco1 | inconclusive: 3.16 µM [inhibitor, full curve, poor fit] | –
Cc1ccccc1C(=O)Nc1ccccc1C(=O)NCC(C)C | inconclusive: 0.891 µM [inhibitor, full curve, poor fit] | –
COc1ccc(Oc2ncc3nc(-c4cccs4)c(=O)n(Cc4cccc(OC)c4)c3n2)cc1 | inconclusive: 22.4 µM [activator, partial curve] | –
O=c1cc(-c2ccc(O)cc2)oc2cc(O)ccc12 | – | inactive: -6.5%
CC(C)=CCC(C)(C)/C=N/NC(N)=O | inconclusive: 39.8 µM [activator, single point] | –
CCOC(=O)c1cc2c(ccn2C)n1Cc1ccccc1Cl | inconclusive: 28.2 µM [inhibitor, single point] | –
O=C(CCC1CCCN(C(=O)c2ccc3cc[nH]c3c2)C1)N1CCN(c2ccccn2)CC1 (centres undefined) | inconclusive: 17.8 µM [inhibitor, partial curve] | –
COc1ccc(C(=O)c2sc3nc(C)cc(-c4cccs4)c3c2N)cc1OC | inconclusive: 22.4 µM [activator, partial curve] | –
Fc1ccc(NC(=S)N2CCN(C/C=C/c3ccccc3)CC2)c(F)c1 | inconclusive: 39.8 µM [inhibitor, single point] | –
CC(=O)N1CCN(c2ccc([N+](=O)[O-])c(-n3nc(C)cc3C)c2)CC1 | – | inactive: -6.94%
O=C(CSc1nc2ccc(Cl)cc2[nH]1)NC1CCCc2ccccc21 (centres undefined) | inconclusive: 28.2 µM [inhibitor, single point] | –
Cc1ccc(C2=NOC(=O)/C2=C\c2ccc(C)o2)cc1 | inconclusive: 39.8 µM [inhibitor, single point] | –
CCOC(=O)C1=c2s/c(=C\c3ccncc3)c(=O)n2C(N)=C(C(=O)OC)C1c1ccncc1 (centres undefined) | inconclusive: 3.16 µM [inhibitor, full curve, poor fit] | –
COc1cc(/C=N/NC(=O)c2ccncc2)ccc1OC(=O)c1ccccc1Cl | inconclusive: 31.6 µM [inhibitor, single point] | –
Cc1ccc2nc(-c3ccncc3)cc(C(=O)Nc3ccc(OC(F)F)cc3)c2c1 | inconclusive: 28.2 µM [inhibitor, single point] | –
CSc1ccc(/C=C(\C#N)C(=O)NC2CCCCC2C)cc1 (centres undefined) | inconclusive: 31.6 µM [inhibitor, single point] | –
Nc1ncnc(Sc2ncccn2)c1[N+](=O)[O-] | – | inactive: -4.63%
CCN(Cc1ccccc1)c1ccc(/C=N/N2CCOCC2)cc1 | inconclusive: 22.4 µM [inhibitor, single point] | –

SMILES | Potency | activity change, negative = inhibition
CN1CCN(c2c(F)cc3c(=O)c(C(=O)O)cn4c3c2SCC4)CC1 | inconclusive: 6.31 µM [inhibitor, single point] | –
CC1CCCC(C)N1C(=C(Cl)Cl)C(=C1SCCS1)[N+](=O)[O-] (centres undefined) | inconclusive: 10 µM [inhibitor, partial curve] | –
CC(C)=CCc1c2c(c3occ(-c4ccc(O)cc4)c(=O)c3c1O)C=CC(C)(C)O2 | inconclusive: 25.1 µM [inhibitor, single point] and inconclusive: 28.2 µM [inhibitor, single point] | –
O=C(Nc1cccc(Cl)c1)c1ccc(F)c(S(=O)(=O)NCc2ccc3c(c2)OCO3)c1 | inconclusive: 35.5 µM [inhibitor, single point] | –
COc1ccc(N2CCN(C(=O)CC34CC5CC(CC(C5)C3)C4)CC2)c([N+](=O)[O-])c1 | inconclusive: 17.8 µM [inhibitor, partial curve] | –
CC(C)N1C(=O)/C(=C\c2nc3ccccc3c(=O)n2-c2ccccc2)c2ccccc21 | inconclusive: 17.8 µM [inhibitor, partial curve] | –
Cc1nc2c(-c3ccc(F)cc3)c(C)nn2c(C)c1CCC(=O)Nc1ccccc1F | – | inactive: -12.3% [at 57.5 µM]
Cc1ccc(-c2nc(Nc3ccc(N4CCOCC4)cc3)c3ccccc3n2)cc1 | inconclusive: 11.2 µM [inhibitor, partial curve] | –
Cc1ccc(Cc2cnc(N3C(=N)SC(C)C3=O)s2)cc1 (centres undefined) | – | inactive: -3.76%
Cc1ccc(C(=O)N/N=C\c2ccc(-c3ccc(Cl)cc3)o2)cn1 | inconclusive: 39.8 µM [inhibitor, single point] | –
COC(=O)C1=C(C)NC(C)=C(C(=O)OCCN(C)Cc2ccccc2)C1c1cccc([N+](=O)[O-])c1 (centres undefined) | inconclusive: 12.6 µM [inhibitor, partial curve] and inconclusive: 39.8 µM [inhibitor, single point] | –
COc1ccc(Nc2nnc(SCC(=O)c3cc4ccccc4o3)s2)cc1 | inconclusive: 35.5 µM [inhibitor, partial curve] | –
Cc1cccc2sc(NNC(=O)c3cc(=O)c4ccccc4o3)nc12 | inconclusive: 44.7 µM [inhibitor, partial curve, poor fit] | –
Clc1cc2nc[nH]c2cc1Cl | – | inactive: -15.9% [at 57.5 µM]
COc1ccc(CCN2C(=O)CC(NC34CC5CC(CC(C5)C3)C4)C2=O)cc1OC (centres undefined) | – | inactive: -4.6%
COc1ccccc1NS(=O)(=O)c1ccc(N/N=C(\C)C(C)C)c([N+](=O)[O-])c1 | inconclusive: 25.1 µM [inhibitor, single point] | –
Cc1ccc(C2=N/C(=C\c3cccnc3)C(=O)O2)cc1 | inconclusive: 3.98 µM [inhibitor, single point] | –
CC(=O)NC(CC(=O)N(C)Cc1c(F)cccc1Cl)c1ccccc1 (centres undefined) | inconclusive: 44.7 µM [inhibitor, single point] | –
N#Cc1nc(COc2ccccc2Cl)oc1N1CCCCCC1 | inconclusive: 31.6 µM [inhibitor, single point] | –
O=C(/C=C/c1ccco1)Nc1ccc2c(c1)OCCO2 | inconclusive: 31.6 µM [inhibitor, single point] | –
